Data as given in the supplement of paper PMC4166925.
± gives the standard deviation of the averaged measurements. Over roughly 33,000 sequences, “E-score (dimensionless, -0.5 to 0.5)” has its median near -0.046; the highest 2% begin near 0.36. The list shows a part of the results.

Test system: T1, SpTbr T-box DNA-binding domain (GST fusion)
T1 sequence: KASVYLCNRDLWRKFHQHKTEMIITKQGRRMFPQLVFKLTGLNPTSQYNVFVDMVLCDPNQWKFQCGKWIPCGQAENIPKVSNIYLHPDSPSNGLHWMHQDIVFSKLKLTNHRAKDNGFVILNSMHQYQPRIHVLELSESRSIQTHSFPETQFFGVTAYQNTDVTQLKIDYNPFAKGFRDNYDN
Assay: PBM E-score of 8-mer (E-score (dimensionless, -0.5 to 0.5)); Tbr is Tbrain of the sea star Patiria miniata (Pm) or the sea urchin Strongylocentrotus purpuratus (Sp); higher = stronger binding preference; most listed sequences are background and not binding sites
Details: the construct has about 5 more residues each side
Method in brief: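 Each ungapped 8-mer received an enrichment E-score from the Universal PBM Analysis Suite, averaged over duplicate arrays. The proteins were Tbr T-box DNA-binding domains, covering the whole T-box plus about five flanking residues, fused to GST and expressed in BL21 E. coli at 20 °C before glutathione affinity purification. Universal Agilent oligonucleotide arrays were made double-stranded by primer extension and incubated with 200 nM protein in PBS (pH 7.5). The arrays were then scanned and quantified, and every 8-mer was scored from probe intensities.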

| Sequence | PBM E-score of 8-mer |
| --- | --- |
| CCGGCTTC | -0.184 ± 0.041 |
| GAGGGTGC | 0.359 ± 0.007 |
| AAGTTGAT | 0.144 ± 0.023 |
| CCTCTCTC | 0.132 ± 0.042 |
| AGTGTCTG | 0.2201 ± 0.0011 |
| ACTGATGC | -0.0503 ± 0.087 |
| CATAATCA | -0.0563 ± 0.083 |
| ACCCGGTC | -0.178 ± 0.048 |
| ACTTATTC | 0.0245 ± 0.057 |
| AAGCTTCG | 0.0241 ± 0.049 |
| CGTGCGAC | 0.238 ± 0.029 |
| TAGGACCA | -0.225 ± 0.059 |
| CATCCAAA | -0.108 ± 0.0082 |
| GGTTCTCA | 0.164 ± 0.055 |
| CACTTCGG | 0.347 ± 0.012 |
| AGTGGCAG | 0.171 ± 0.033 |
| ATTATATG | -0.252 ± 0.075 |
| CTCAATGA | -0.0417 ± 0.0066 |
| CCCCGTAG | -0.098 ± 0.0035 |
| CCTCACGA | -0.0333 ± 0.01 |
| TGCGAAAA | 0.383 ± 0.038 |
| TAACATTA | -0.0674 ± 0.087 |
| AGCAAAGC | -0.0455 ± 0.048 |
| GTCCGGGA | -0.24 ± 0.0063 |
| ATAATTCC | -0.291 ± 0.01 |

| Sequence | PBM E-score of 8-mer |
| --- | --- |
| ACCTACCC | 0.0259 ± 0.022 |
| ATCTCACA | 0.372 ± 0.0029 |
| CCAATATC | -0.108 ± 0.032 |
| GAAAAGTC | -0.0435 ± 0.043 |
| AAGAGAGG | -0.163 ± 0.072 |
| AAATGTTG | -0.022 ± 0.054 |
| TACATGGA | -0.099 ± 0.029 |
| AGAATGCT | -0.0245 ± 0.047 |
| CCAGCCAC | 0.0592 ± 0.097 |
| ATTATTGA | -0.124 ± 0.03 |
| GAGCCTAC | -0.098 ± 0.11 |
| ATGAAACG | -0.212 ± 0.0067 |
| CCCCGTAA | 0.0793 ± 0.052 |
| AGTAGTTC | 0.121 ± 0.054 |
| CAAGCGCC | -0.0398 ± 0.063 |
| CACAGGAC | 0.00838 ± 0.0025 |
| AGGGTTGC | -0.0897 ± 0.0017 |
| ACTTTAGG | -0.131 ± 0.075 |
| AAATCGAT | -0.148 ± 0.05 |
| GTCGGGCA | 0.177 ± 0.054 |
| ACCTAGAG | 0.028 ± 0.067 |
| CCTCTCAG | -0.0977 ± 0.011 |
| GACTCCGC | -0.011 ± 0.024 |
| GGCGCTAA | 0.4 ± 0.035 |
| CTTTGCAA | 0.0361 ± 0.021 |

| Sequence | PBM E-score of 8-mer |
| --- | --- |
| ACCGGAAC | -0.2 ± 0.03 |
| ACCCGTTG | 0.124 ± 0.01 |
| AGACGTTG | -0.104 ± 0.061 |
| CCCACGAA | 0.0416 ± 0.034 |
| CTTAGGAC | -0.296 ± 0.04 |
| TACTAGCA | 0.0537 ± 0.055 |
| AGTGTTTG | 0.219 ± 0.041 |
| TCCAGTAA | -0.172 ± 0.0047 |
| AGCTACAC | 0.142 ± 0.039 |
| CGGCTGAC | -0.00987 ± 0.087 |
| CTTCTCGC | 0.207 ± 0.023 |
| ACGAATCG | 0.156 ± 0.013 |
| CGGTTGCA | 0.111 ± 0.037 |
| CGGAGCCG | -0.105 ± 0.061 |
| GATACAGA | -0.168 ± 0.013 |
| AGCGAACG | 0.0538 ± 0.025 |
| ATTTCGCC | -0.0532 ± 0.044 |
| CGTTTCTA | -0.105 ± 0.033 |
| ATCATGAG | -0.199 ± 0.045 |
| GATACCTA | -0.163 ± 0.011 |
| CATGCCAG | -0.0834 ± 0.021 |
| GTTCTCTA | -0.1294 ± 0.00039 |
| CGCTTAGA | -0.0545 ± 0.088 |
| GAAGGTGC | 0.41 ± 0.019 |
| AAACCCTT | -0.2653 ± 0.0025 |

| Sequence | PBM E-score of 8-mer |
| --- | --- |
| GATATCTA | -0.0892 ± 0.022 |
| CATCGCCA | 0.107 ± 0.026 |
| ACGATGTC | -0.118 ± 0.0065 |
| AGCGTTAT | 0.0858 ± 0.052 |
| CCAAGATA | -0.0544 ± 0.0035 |
| AACTGGCC | 0.0198 ± 0.092 |
| ACATTTAG | -0.075 ± 0.032 |
| TCGATCGA | -0.0919 ± 0.054 |
| AATCCTGG | -0.11 ± 0.049 |
| GCTCGCGA | 0.231 ± 0.037 |
| GATAGGTA | -0.0272 ± 0.1 |
| CGCCGTGC | -0.0346 ± 0.02 |
| CGATACTC | -0.0278 ± 0.047 |
| CCGTGAGG | 0.00014 ± 0.063 |
| CCCAGGCA | -0.237 ± 0.043 |
| AGACGTAC | -0.0414 ± 0.071 |
| AACCTCTC | -0.0774 ± 0.028 |
| AACGGCCG | -0.00712 ± 0.0022 |
| ACACCTAT | 0.4592 ± 0.0012 |
| TGTTAGAA | 0.148 ± 0.032 |
| GTAACTTA | -0.18 ± 0.14 |
| GGTTTCAC | 0.252 ± 0.047 |
| GGCTGGGA | -0.213 ± 0.0045 |
| GCCTCTCA | 0.0085 ± 0.045 |
| CATCCCGA | 0.0316 ± 0.068 |

| Sequence | PBM E-score of 8-mer |
| --- | --- |
| GTATAAAA | -0.213 ± 0.037 |
| TCGTTAGA | -0.00685 ± 0.036 |
| CTGTTGGC | 0.199 ± 0.055 |
| ATGCGGAG | -0.068 ± 0.02 |
| AGTTCTAT | -0.202 ± 0.011 |
| ACAACATG | 0.171 ± 0.016 |
| ACGAGTGA | 0.0998 ± 0.035 |
| AGTGACCA | 0.11 ± 0.058 |
| GGCGCGAA | 0.463 ± 0.011 |
| GTGAACAC | 0.341 ± 0.023 |
| ATATATTA | -0.279 ± 0.044 |
| TCTTAGCA | 0.246 ± 0.0053 |
| AGTAAGTG | 0.232 ± 0.0076 |
| CGCGCGAC | 0.284 ± 0.015 |
| TCCGAACA | 0.0875 ± 0.0097 |
| AAAGGGGA | -0.12 ± 0.037 |
| ACACTGTG | 0.299 ± 0.03 |
| ACACGCAC | 0.138 ± 0.017 |
| CAGAAGGG | 0.0708 ± 0.037 |
| GACACACA | 0.251 ± 0.021 |
| ATCCGCCC | -0.217 ± 0.0085 |
| ACGCCACG | 0.0319 ± 0.14 |
| CCGCCAGA | 0.0217 ± 0.029 |
| CACGCAAC | 0.154 ± 0.09 |
| AACACCTA | 0.4609 ± 0.0024 |

| Sequence | PBM E-score of 8-mer |
| --- | --- |
| ACGGTCAC | 0.19 ± 0.056 |
| CCCATGCC | -0.273 ± 0.038 |
| CAGCAGCC | -0.127 ± 0.0024 |
| CGTACCAC | -0.0764 ± 0.081 |
| GCTACCCC | -0.0877 ± 0.072 |
| GATAAGCC | 0.0533 ± 0.0065 |
| CCGCTCCA | -0.15 ± 0.031 |
| ACCCACCG | -0.116 ± 0.0075 |
| GTAATCAC | 0.239 ± 0.0074 |
| AGCGCACA | 0.00948 ± 0.075 |
| CACGCGTG | 0.34 ± 0.0094 |
| CCGATCAG | 0.00396 ± 0.037 |
| TACCCAGA | -0.153 ± 0.066 |
| CGTAGTTA | -0.218 ± 0.043 |
| ATCGGGAA | -0.131 ± 0.033 |
| CCCCGTTC | 0.0168 ± 0.039 |
| AACCGTAC | -0.119 ± 0.017 |
| ACGTTAAT | 0.0812 ± 0.022 |
| CACCGAAC | 0.187 ± 0.073 |
| ATTCCTGG | -0.309 ± 0.056 |
| GCGGCCAA | 0.0926 ± 0.055 |
| GAAGGGGA | -0.0835 ± 0.056 |
| ATTACTAG | -0.033 ± 0.00078 |
| ACATGGGA | -0.0673 ± 0.097 |
| GGCTTGTA | -0.189 ± 0.029 |

| Sequence | PBM E-score of 8-mer |
| --- | --- |
| CCCGTAAA | -0.0141 ± 0.076 |
| AGGCTCCA | -0.0967 ± 0.023 |
| CATATTAG | -0.0681 ± 0.017 |
| GACCGGTC | 0.0284 ± 0.076 |
| GTATGTAA | -0.216 ± 0.01 |
| GACCTTCC | -0.00679 ± 0.036 |
| CACAATTA | 0.259 ± 0.041 |
| ACACGGAC | 0.0746 ± 0.055 |
| AACCGATC | 0.0581 ± 0.0084 |
| GTCACATA | 0.247 ± 0.043 |
| CATCTCAC | 0.308 ± 0.006 |
| CTCTCTCA | 0.135 ± 0.0023 |
| CACACACC | 0.454 ± 0.013 |
| CTCCGGCC | -0.234 ± 0.013 |
| AAGGATTG | -0.0744 ± 0.013 |
| ACATCGTG | 0.0075 ± 0.037 |
| AGCACCAA | 0.174 ± 0.04 |
| CCATCCGC | -0.0678 ± 0.075 |
| AAGTTTGT | -0.0997 ± 0.016 |
| CGGATCAC | 0.163 ± 0.0029 |
| GCCTTACA | 0.0297 ± 0.056 |
| AGACAGCC | -0.14 ± 0.054 |
